According to PubChem BioAssay AID1508642 (National Center for Advancing Translational Sciences (NCATS), 2021):
Out of some 43,000 compounds screened, about 200 (0.47%) were called active. Inconclusive results, whose numbers are uncertain, are shown with a selection of clear calls. The call rests on the fitted dose curve; in most records, active means well fitted cell-killing curve with a large enough effect; inconclusive means small, poorly fitted or top-dose-only effect, or effect the other way; inactive means flat fitted curve, though single readings scatter. Potencies beside an inconclusive call are fits to weak or partial responses and may not hold up.

Assay: Cell viability qHTS assay in S16 Pmp22-F2sN cells; further: nearly all actives have a fitted effect of over 65% in size
Settings: S16 Pmp22-F2sN Schwann cells (luciferase reporters placed in the Pmp22 gene) viability, CellTiter-Glo, 24 h; activity change, negative = cytotoxicity: at 57.5 µM (top of the series)
Summary of the method: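 S16 Schwann cells carrying the Pmp22-F2sN reporter, seeded in 1536-well format, were exposed to library compounds for 24 h at 37C. Viability was read as CellTiter-Glo luminescence after 15 min at room temperature.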
On the % scale 0 is the no-effect control and ±100 the full control effect; potency means the concentration at half of the fitted maximal effect; tags describe the fitted curve by direction and shape.

Q: With `CCOc1ccc(NC(=O)NCCn2nnc3cc(S(=O)(=O)N(C)C)ccc32)cc1` as the compound, how does the Potency read?
A: Its Potency is inconclusive: 39.8 µM [rising, single point].

Q: Which Potency does the source give for `COc1cccc(CNS(=O)(=O)c2ccc(N3CCCCS3(=O)=O)cc2)c1` here?
A: Its Potency is inconclusive: 14.1 µM [cytotoxic, partial curve].

Q: Which Potency does the source give for `CCOc1ccc(NC(=O)Cn2c(=O)n(Cc3ccc(C(=O)NCc4ccc(C)cc4)cc3)c(=O)c3ccccc32)cc1` here?
A: The Potency was inconclusive: 39.8 µM [cytotoxic, single point].

Q: Which Potency does the source give for `O=C(CCCn1ccc2cc(S(=O)(=O)N3CCCC3)ccc21)NCc1ccc(Cl)cc1` here?
A: Its Potency is inconclusive: 28.2 µM [cytotoxic, single point].

Q: With `CCN(c1ccccc1)S(=O)(=O)c1ccc2[nH]cc(C(=O)NCc3ccc(C)cc3)c(=O)c2c1` as the compound, how does the “activity change, negative = cytotoxicity” value read?
A: Its value is inactive: 0.0848%.

Q: With `CC(=O)c1ccc(NC(=O)c2nc3ccccc3n(C)c2=O)cc1` as the compound, how does the “activity change, negative = cytotoxicity” value read?
A: The value was inactive: -20.9%.

Q: For `COc1ccc(/C=C/c2nc3ccccc3c(=O)n2-c2cccc(C(F)(F)F)c2)cc1`, which Potency is on record?
A: The Potency was inconclusive: 28.2 µM [cytotoxic, single point].

Q: Which “activity change, negative = cytotoxicity” value does the source give for `CC1=C(C(=O)OCC2CCCCC2)C(c2ccc(Cl)cc2Cl)CC(=O)N1` (stereo not drawn) here?
A: Its value is inactive: 28.6%.

Q: With `Cc1ccc(C)c(Nc2nc3nonc3nc2Nc2cccc(C)c2C)c1` as the compound, how does the Potency read?
A: The Potency was inconclusive: 39.8 µM [cytotoxic, single point].

Q: Which Potency does the source give for `CC(NC(=O)c1ccc2nc(Cc3ccccc3)oc2c1)c1ccccc1` (stereo not drawn) here?
A: The Potency was inconclusive: 31.6 µM [cytotoxic, single point].

Q: For `CCOc1ccc(CCNC(=O)c2sc3ncccc3c2-n2c(C)ccc2C)cc1`, which Potency is on record?
A: Its Potency is inconclusive: 31.6 µM [cytotoxic, single point].

Q: With `COc1cc(CNc2ccc3[nH]c(=O)[nH]c3c2)cc(Br)c1OCc1ccc(F)cc1` as the compound, how does the Potency read?
A: Its Potency is inconclusive: 14.1 µM [cytotoxic, partial curve].

Q: With `Cc1ccc(-c2noc(CSc3nnc(C)n3-c3ccc(C)cc3)n2)cc1` as the compound, how does the Potency read?
A: Its Potency is inconclusive: 31.6 µM [cytotoxic, single point].

Q: With `COc1ccc(/C=C/c2onc(C)c2S(=O)(=O)N2CCC(C(=O)N3CCCCC3)CC2)cc1` as the compound, how does the Potency read?
A: The Potency was inconclusive: 39.8 µM [cytotoxic, single point].

Q: With `CCOC(=O)c1c(C)[nH]c(C)c1S(=O)(=O)NCC(=O)N1CCN(c2cc(Cl)ccc2C)CC1` as the compound, how does the Potency read?
A: The Potency was inconclusive: 35.5 µM [cytotoxic, partial curve].

Q: Which Potency does the source give for `CC(Oc1ccccc1)C(=O)N1CCN(Cc2cc(=O)n3nc(-c4ccccc4Cl)sc3n2)CC1` (stereo not drawn) here?
A: The Potency was inconclusive: 3.55 µM [cytotoxic, single point].

Q: With `COc1ccc(NC(=O)CSc2c(C(C)C)cnc3c2c(=O)n(C)c(=O)n3C)c(OC)c1` as the compound, how does the Potency read?
A: The Potency was inconclusive: 0.0282 µM [cytotoxic, full curve, poor fit].

Q: Which Potency does the source give for `Cc1cc(NC(=O)CN2CCC(O)CC2)nc2c1c(=O)oc1ccccc12` here?
A: Its Potency is inconclusive: 10 µM [rising, partial curve].

Q: Which “activity change, negative = cytotoxicity” value does the source give for `COC(=O)c1sc2ccccc2c1S(=O)(=O)N1CCN(c2ccc(C(C)=O)cc2)CC1` here?
A: Its value is inactive: -1.75%.

Q: For `O=S(=O)(Nc1cccc(-c2ccc(N3CCCCC3)nn2)c1)c1ccc(F)cc1F`, which “activity change, negative = cytotoxicity” value is on record?
A: Its value is inactive: 7.17%.

Q: For `O=C(Nc1ccc(F)c(F)c1)c1ccc(F)c(S(=O)(=O)N2CCC3(CC2)OCCO3)c1`, which Potency is on record?
A: The Potency was inconclusive: 39.8 µM [cytotoxic, single point].

Q: Which Potency does the source give for `Cc1ccc(/C=C/c2nc3ccccc3n2S(=O)(=O)c2ccc(Br)cc2)cc1` here?
A: Its Potency is inconclusive: 22.4 µM [cytotoxic, single point].

Q: For `COc1ccc(C(=O)c2c(N)c(-c3nc(-c4ccccc4)cs3)c3ccccn23)cc1`, which Potency is on record?
A: The Potency was inconclusive: 31.6 µM [cytotoxic, single point].

Q: With `O=C(NCC(c1cccnc1)N1CCc2ccccc2C1)C(=O)Nc1cccc(Cl)c1` (stereo not drawn) as the compound, how does the Potency read?
A: The Potency was inconclusive: 39.8 µM [cytotoxic, single point].

Q: With `COc1ccc(-c2cc(C(=O)NCCc3ccccc3)c3c(-c4ccccc4)[nH]nc3n2)cc1` as the compound, how does the Potency read?
A: Its Potency is inconclusive: 39.8 µM [cytotoxic, single point].

Q: With `COc1ccc(CNC(=O)CCc2c(C)nn(-c3ccc(N4CCOCC4)nn3)c2C)cc1` as the compound, how does the Potency read?
A: The Potency was inconclusive: 3.98 µM [cytotoxic, full curve].

Q: Which Potency does the source give for `Cc1cccc(NC(=O)CSc2nc(C)c(Cc3ccccc3)c(=O)[nH]2)c1C` here?
A: The Potency was inconclusive: 39.8 µM [rising, partial curve, poor fit].

Q: Which “activity change, negative = cytotoxicity” value does the source give for `CC(=O)Nc1ccccc1-c1nc2ccccc2n(C(C)C(=O)Nc2cccc(C)c2C)c1=O` (stereo not drawn) here?
A: The value was inactive: 0.339%.

Q: With `CSc1ccc(/C=C/c2nc3ccccc3n2S(=O)(=O)c2ccc(F)c(C)c2)cc1` as the compound, how does the Potency read?
A: Its Potency is inconclusive: 39.8 µM [cytotoxic, single point].

Q: For `CCOc1ccc(NC(=O)CC2C(=O)N(c3cccc(C)c3)C(=O)N2CCC2=CCCCC2)cc1` (stereo not drawn), which Potency is on record?
A: The Potency was inconclusive: 11.2 µM [cytotoxic, partial curve, poor fit].

Q: Which “activity change, negative = cytotoxicity” value does the source give for `Cc1cc(NC(=O)c2ccco2)cc(-c2nc3cc(Cl)ccc3o2)c1O` here?
A: Its value is inactive: -19.4%.

Q: For `COc1ccc(Cl)cc1NC(=O)CN1C(=O)CSc2ccc(S(=O)(=O)N3CCCC3)cc21`, which Potency is on record?
A: The Potency was inconclusive: 22.4 µM [cytotoxic, partial curve, poor fit].

Q: For `CC(=O)Nc1ccc(NC(=O)c2nc(SCc3ccccc3C)ncc2Cl)cc1`, which “activity change, negative = cytotoxicity” value is on record?
A: Its value is inactive: 6.05%.

Q: With `Cc1ccc(Cl)cc1-n1ncc2c(NCCC3=CCCCC3)ncnc21` as the compound, how does the Potency read?
A: The Potency was inconclusive: 28.2 µM [cytotoxic, single point].

Q: With `Cn1c(=O)c2c(-c3ccccc3Br)n(Cc3ccccc3)cc2n(C)c1=O` as the compound, how does the Potency read?
A: Its Potency is inconclusive: 0.02 µM [rising, single point].

Q: Which Potency does the source give for `CCOc1ccc(-c2nnc(SCC(=O)c3ccc(F)cc3)n2-c2ccccc2)cc1` here?
A: Its Potency is inconclusive: 39.8 µM [cytotoxic, single point].

Q: For `Cc1ccc(NC(=O)Cn2cc(C(=O)c3ccco3)c3ccccc32)c(C)c1`, which Potency is on record?
A: Its Potency is inconclusive: 14.1 µM [cytotoxic, partial curve].

Q: For `O=C(Nc1cccc(Cl)c1)c1cc(S(=O)(=O)N2CCCc3ccccc32)ccc1F`, which Potency is on record?
A: The Potency was inconclusive: 39.8 µM [cytotoxic, single point].
